# Reference: the supplement of paper PMC8047034
# Counter-ions that a name gives are not always drawn. The list shows a part of the results. Repeats are few or missing, and single values can be far off.
# Legend:
# OVCAR4 = assay: log2 surviving fraction (library drug vs vehicle, or drug + carboplatin vs carboplatin alone; relative to plate median); ovarian cancer lines: OVCAR4 is platinum-sensitive and Ov4Carbo platinum-resistant; higher = more cell survival; conditions: library drug concentration 10 µM, 7 days
# Ov4Carbo = assay: as above; conditions: library drug concentration 10 µM, 7 days
Structure (SMILES),log2 surviving fraction (OVCAR4; carboplatin co-treatment 0 µM),log2 surviving fraction (OVCAR4; carboplatin co-treatment 5 µM),log2 surviving fraction (Ov4Carbo; carboplatin co-treatment 0 µM),log2 surviving fraction (Ov4Carbo; carboplatin co-treatment 5 µM)
CC(=O)Nc1ccccc1 [Acetanilide (Antifebrin)],-0.381,-0.135,0.253,0.746
CCCCC[C@H](O)/C=C/[C@H]1[C@H](O)CC(=O)[C@@H]1CCCCCCC(=O)O [Alprostadil (Caverject)],0.65,-0.113,0.154,-0.0592
c1cnc2cc3c(cc2n1)[C@@H]1CNC[C@H]3C1 [Varenicline tartrate],-9.11,-0.877,-7.91,0.472
O=C(O)CCCC[C@@H]1SC[C@@H]2NC(=O)N[C@@H]21 [Biotin (Vitamin B7)],0.845,0.284,0.648,-0.0648
CC(=O)/N=c1/sc(S(N)(=O)=O)nn1C [Methazolamide],0.378,1.12,-0.451,0.816
CN1CCC(=C2c3ccccc3CCc3sccc32)CC1 [Pizotifen malate],-0.342,-1.22,-1.26,-2.28
CNS(=O)(=O)Cc1ccc2[nH]cc(CCN(C)C)c2c1 [Sumatriptan succinate],1.69,1.56,1.55,0.697
CN(C)CCN(Cc1ccccc1)c1ccccn1 [Tripelennamine HCl],0.941,0.255,0.243,0.994
CN(C)CC/C=C1/c2ccccc2Sc2ccc(Cl)cc21 [Chlorprothixene],1.27,0.718,-2.4,0.284
CCS(=O)(=O)CCn1c([N+](=O)[O-])cnc1C [tinidazole],0.0634,-0.285,-0.859,-1.1
NC(N)=Nc1nc(CSCC/C(N)=N/S(N)(=O)=O)cs1 [Famotidine (Pepcid)],0.486,0.308,1.71,1.13
Cc1ncc(C[n+]2csc(CCO)c2C)c(N)n1 [Thiamine HCl (Vitamin B1)],-0.412,-0.347,0.531,0.486
O=C(O)CSCC(=O)NC1CCSC1=O (stereo unspecified) [Erdosteine],0.719,0.778,0.945,0.529
Cc1ncc(CO)c(CO)c1O [Pyridoxine hydrochloride],1.03,0.939,-0.0704,-0.219
CC(C)N(CCNC(=O)CN1CCCC1=O)C(C)C [Pramiracetam],0.345,0.593,0.922,0.0614
CC1(C)S[C@@H]2[C@H](NC(=O)[C@H](NC(=O)N3CCNC3=O)c3ccccc3)C(=O)N2[C@H]1C(=O)O [Azlocillin sodium salt],0.335,-0.456,-0.409,-0.385
CNCC(O)c1ccc(O)c(O)c1 (racemic) [DL-Adrenaline],-0.863,-0.992,-0.00321,0.273
C[C@@H]1CCC[C@H](C)N1NC(=O)c1ccc(Cl)c(S(N)(=O)=O)c1 [Clopamide],0.138,0.585,0.931,0.027
C/C(O)=C(\C#N)C(=O)Nc1ccc(C(F)(F)F)cc1 [Teriflunomide],-0.599,-0.778,0.417,1.01
